Measurements published in PubChem BioAssay AID2112 (National Center for Advancing Translational Sciences (NCATS), 2009).
Several values for one entry are separate records, joined by “and”; a condition that tells them apart may be missing. Equal values may be shown once. Out of some 240,000 compounds screened, about 15 (0.006%) were called active. This list was built around the results that the source calls inconclusive (neither active nor inactive); the mix of calls is not that of the screen. The call rests on the fitted dose curve; in most records, active means well fitted inhibition curve with a large enough effect; inconclusive means small, poorly fitted or top-dose-only effect, or effect the other way, or another doubt; inactive means no such curve, though single readings can be large or run the other way. Where the call is inconclusive, the potency comes from a doubtful curve fit.

Each compound was assayed against Lysosomal alpha-glucosidase (Homo sapiens) (UniProt P10253) (assay: qHTS Assay for Inhibitors and Activators of Human alpha-Glucosidase From Spleen Homogenate). Settings: 4-MU-alpha-glucoside fluorescence; series mostly up to 79.9 µM.
Summary of the method: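 Human spleen homogenate (1 ug) with 4-methylumbelliferyl-alpha-D-glucopyranoside (1 mM final) in 50 mM citrate/phosphate pH 5.0, 0.01% Tween-20; 40 min at 37 C. Stopped at pH 10; 4-MU fluorescence Ex 365/Em 440 nm; AC50 by Hill fit.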
Potency means the concentration at half of the fitted maximal effect; tags describe the fitted curve by direction and shape.
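Wherever activity change, negative = inhibition is given: 0% = enzyme with vehicle and -100% = no enzyme basal signal.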

| Structure (SMILES) | Potency | activity change, negative = inhibition |
| --- | --- | --- |
| CC(O)C(C)OC(=O)[C@@H]1C[C@@H]2c3cccc4c3c(cn4C(C)C)C[C@H]2N(C)C1 (some centres undefined) | inconclusive: 50.1 µM [inhibitor, single point] | – |
| c1ccc(N2CC3CCc4ccccc4C3=N2)cc1 (centres undefined) | inconclusive: 39.8 µM [activator, partial curve] | – |
| O=c1c(O)c(-c2ccc(O[C@@H]3O[C@H](CO)[C@@H](O)[C@H](O)[C@H]3O)c(O)c2)oc2cc(O)cc(O)c12 | inconclusive: 35.5 µM [inhibitor, partial curve] | – |
| COc1cc(/C=N/Nc2ccccc2C(F)(F)F)ccc1O | inconclusive: 0.158 µM [inhibitor, full curve, poor fit] | – |
| O=C(c1ccc2c3c(cccc13)CC2)C1CCCN(Cc2cccnc2)C1 (centres undefined) | inactive | – |
| O=C(COc1ccc2c(c1)OCO2)Nc1ccc2c(c1)oc1ccccc12 | inconclusive: 1.26 µM [inhibitor, full curve, poor fit] | – |
| N#C/C(=C\c1ccc(O)c(O)c1)C(N)=S | inconclusive: 25.1 µM [inhibitor, single point] | – |
| O=[N+]([O-])c1cccc(Nc2c3ccccc3nc3ccccc23)c1 | inconclusive: 28.2 µM [activator, single point] | – |
| Cn1c(C(=O)N2CCc3ccccc3C2)cc2c(=O)n3ccccc3nc21 | inconclusive: 28.2 µM [activator, single point] | – |
| CCn1c(SCC(=O)N/N=C/c2c[nH]c3ccccc23)nnc1-c1ccc(Cl)cc1 | inconclusive: 22.4 µM [inhibitor, partial curve, poor fit] | – |
| CSCCC(NC(C)=O)C(=O)Oc1ccc2c3c(c(=O)oc2c1)CCCC3 (centres undefined) | inconclusive: 28.2 µM [activator, partial curve] | – |
| COc1cccc(C(=O)NCc2ccccc2OC)c1 | inconclusive: 11.2 µM [inhibitor, single point] | – |
| Cc1c(C)c2cc(Cl)c(O)c(CN(C)C)c2oc1=O | inconclusive: 35.5 µM [activator, partial curve] | – |
| c1ccc(Cn2nc(-c3ccccc3)nc2-c2ccccc2)cc1 | inconclusive: 0.1 µM [inhibitor, full curve, poor fit] | – |
| Cc1ccc(S(=O)(=O)N2CCC(C(=O)C3C(=O)CC(C)(C)CC3=O)CC2)cc1 | inconclusive: 50.1 µM [inhibitor, single point] | – |
| O=C(CSc1cccc[n+]1[O-])c1ccc(-c2ccccc2)cc1 | inactive | – |
| CCCCCC1(C)NC(=S)N(c2ccccc2)N1 (centres undefined) | inactive | – |
| COc1ccc(O[C@H]2C=C[C@@H](c3ccccc3)O[C@H]2CO/N=C\C[C@@H]2C=C[C@H](OC(C)=O)[C@H](COC(C)=O)O2)cc1 | – | inactive: 1.91% [at 17.4 µM] |
| C=CCc1c(O)c(CC)cc2c(C)cc(=O)oc12 | inconclusive: 31.6 µM [activator, partial curve] | – |
| COc1cc2ncc(-c3ccccc3)nc2cc1OC | inconclusive: 44.7 µM [activator, partial curve] and inconclusive: 39.8 µM [activator, partial curve] | – |
| CCN(C(=O)CN1CCN(c2ccccc2F)CC1)c1c(N)n(Cc2ccccc2)c(=O)[nH]c1=O | inactive | – |
| COc1ccc(NC(=O)C(c2ccc(C)cc2)N(C)C(=O)Cc2cccs2)cc1 (centres undefined) | inconclusive: 3.16 µM [inhibitor, partial curve] | – |
| O=S(=O)(Nc1ccc(-c2nc3cccnc3s2)cc1)c1ccccc1F | inconclusive: 22.4 µM [activator, partial curve] | – |

| Structure (SMILES) | Potency | activity change, negative = inhibition |
| --- | --- | --- |
| Cc1ccc(NS(=O)(=O)c2cc(N)ccc2Cl)c(C)c1 | inactive | – |
| O=C(CNS(=O)(=O)c1ccc(Br)s1)N1CCC2(CC1)OCCO2 | inconclusive: 28.2 µM [inhibitor, partial curve, poor fit] | – |
| Cc1cc(C)nc(SCc2cc(=O)c(OC(=O)c3ccco3)co2)n1 | inconclusive: 3.98 µM [inhibitor, partial curve, poor fit] | – |
| FC(F)(F)c1ccccc1NC(=S)Nc1cccc2cnccc12 | inactive | – |
| CC1=CC(C)[C@H](/C=N/n2c(=O)[nH]c3c([nH]c4ccc(C)cc43)c2=O)C(C)C1 (some centres undefined) | inconclusive: 28.2 µM [activator, single point] | – |
| CCN(CC)Cc1c(CC(C)C)oc(C)c1C(=O)O | inconclusive: 1.26 µM [inhibitor, single point] | – |
| O=C(Oc1ccc2ccc(=O)oc2c1)C1CCCCC1 | inconclusive: 35.5 µM [activator, partial curve] | – |
| COCCn1c(-c2ccccc2)nc2c(c(=O)c3ccccc3n2C)c1=O | inactive | – |
| COc1ccc(-c2cc(N)n(S(=O)(=O)c3c(F)c(F)c(F)c(F)c3F)n2)cc1OC | inconclusive: 50.1 µM [inhibitor, single point] | – |
| Cc1ccc(C2N(C)c3ccccc3-c3nc4ccccc4n32)o1 (centres undefined) | inconclusive: 35.5 µM [activator, single point] | – |
| O=C(Nc1ccc2ccccc2c1)c1ccc(Cl)cc1Cl | inconclusive: 56.2 µM [inhibitor, partial curve] | – |
| C/C(=N\NC(=O)c1cc2c(s1)CCC(C)C2)c1cccnc1 (centres undefined) | inactive | – |
| CC(C)CNC(=O)COC(=O)/C=C/c1ccccc1[N+](=O)[O-] | inconclusive: 8.91 µM [inhibitor, partial curve, poor fit] | – |
| Cc1ccc(NC(=O)Cn2cnc3cc([N+](=O)[O-])ccc3c2=O)cc1 | inconclusive: 0.178 µM [inhibitor, full curve, poor fit] | – |
| Clc1ccc2nc(N3CCCCC3)[nH]c2c1 | inactive | – |
| O=c1oc2c(CN3CCOCC3)c(O)ccc2c2c1CCC2 | inconclusive: 39.8 µM [activator, single point] | – |
| N#Cc1c(-c2ccc(Cl)cc2)c2c([nH]c1=O)-c1ccccc1OC2 | inconclusive: 39.8 µM [activator, partial curve] | – |
| Nc1c(S(=O)(=O)c2cccs2)c2nc3ccccc3nc2n1CCc1ccccc1 | inconclusive: 44.7 µM [activator, single point] | – |
| CCCn1nnc(NC(=O)c2ccc(-c3cccc(Cl)c3)o2)n1 | inactive | – |
| O=c1cc(-c2ccc(O)c(O)c2)oc2cc(O)cc(O)c12 | inactive | – |
| Nc1cc(C(=O)O)ccc1Nc1ccc(F)c(F)c1 | inactive | – |
| COc1ccc(OC)c(-c2ccccc2/C=N/NS(=O)(=O)c2ccc(C)cc2)c1 | – | inactive: -13% [at 17.4 µM] |
| Oc1ccccc1Nc1nc(NCc2ccco2)c2ccccc2n1 | inactive | – |

| Structure (SMILES) | Potency | activity change, negative = inhibition |
| --- | --- | --- |
| N#Cc1c(NCCCO)nc(-c2ccco2)c2c1CCCC2 | inconclusive: 35.5 µM [activator, single point] | – |
| CCC(=O)Oc1ccc2c(c1)OC1(OC(C)=O)OC(C)CC1=C2C (centres undefined) | inconclusive: 35.5 µM [activator, partial curve] | – |
| COCCn1c(-c2ccco2)nc2nc3ccccc3nc21 | inconclusive: 28.2 µM [activator, partial curve] | – |
| CCN(CC)Cc1c(O)c(Cl)cc2c3c(c(=O)oc12)CCCC3 | inconclusive: 44.7 µM [activator, single point] | – |
| COc1ccc(OC)c(C2=Nn3c(nnc3-c3cc(OC)ccc3OC)SC2)c1 | inactive | – |
| N#CCCn1c(=O)c(-c2ccc(Cl)cc2)nc2cnc(Nc3ccccc3)nc21 | inactive | – |
| Cc1c(O)ccc2c3c(c(=O)oc12)CCCC3 | inconclusive: 35.5 µM [activator, single point] | – |
| COc1cc(/C=N/NC(=Nc2ccc(C)cc2)c2nc3ccccc3s2)ccc1O | inconclusive: 0.794 µM [inhibitor, full curve, poor fit] | – |
| COc1cc(-c2cc(N3C(=O)Nc4ccccc4N3O)n[nH]2)cc(OC)c1OC | inconclusive: 28.2 µM [inhibitor, partial curve] | – |
| O=C(c1ccccc1)c1ccc(OCCCN2CCCC2)cc1 | inactive | – |
| O=C(COC(=O)CNC(=O)C1CCCCC1)Nc1ccc2ccccc2c1 | inconclusive: 0.158 µM [inhibitor, full curve, poor fit] | – |
| CN(C)c1ccc(C(=C2C=CC(=[N+](C)C)C=C2)c2ccc(N(C)C)cc2)cc1 | inactive | – |
| O=C(c1ccco1)c1coc2c1cc(O)c1ccccc12 | inactive | – |
| COC(=O)C1=CN(CCCN2CCCC2=O)C=C(C(=O)OC)C1c1cccs1 | inconclusive: 35.5 µM [activator, partial curve] | – |
| CC(C)CCOc1ccc(N)cc1 | inactive | – |
| COc1ccc(Cn2c(C)nnc2-c2cnn(C)c2N)cc1 | inconclusive: 44.7 µM [inhibitor, single point] | – |
| Oc1ccc2ccccc2c1C=Nc1ccc(Cl)cn1 | inactive | – |
| COc1ccccc1NC(=O)c1ccc(Br)o1 | inconclusive: 17.8 µM [inhibitor, partial curve, poor fit] | – |
| Cc1nc(SC2CC(=O)N(c3ccccc3)C2=O)nc2c1CCCC2 (centres undefined) | inconclusive: 0.794 µM [inhibitor, full curve, poor fit] | – |
| CN1CC2(Cc3c1ccc1ccccc31)C(=O)OC(C)(C)OC2=O | inconclusive: 31.6 µM [activator, single point] | – |
| Nc1c(C(=O)NCc2ccco2)c2nc3ccccc3nc2n1Cc1ccccc1 | inconclusive: 39.8 µM [activator, single point] | – |
| CCN(CC)CCOC(=O)c1ccc(NC(=O)c2ccc(Cl)c(S(=O)(=O)N3CCCCCC3)c2)cc1 | inactive | – |
| CCNc1ncc2nc(-c3ccccc3)c(=O)n(C[C@H]3CCCO3)c2n1 | inconclusive: 11.2 µM [activator, single point] | – |
